# Source: PubChem BioAssay AID485344 (National Center for Advancing Translational Sciences (NCATS), 2010)
# The campaign covered roughly 340,000 compounds. About 6,900 (2%) were called active. Rule as the data show it: active = inhibition above about 30%; inactive = below that, where a call was filed. The entries are a selection whose mix differs from that of the whole data set. Entries without a call were filed so in the source.
# Target: D(2) dopamine receptor (Homo sapiens) (UniProt P14416)
# Experiment: HTS Assay for Allosteric Antagonists of the Human D2 Dopamine Receptor: Primary Screen for Antagonists; also: 0% is about no effect
# Conditions: HEK293 TREx D2 cells, calcium flux, dopamine EC80; at 10 µM; stronger effect = higher value
# In short: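 Inhibition of EC80 dopamine-driven calcium flux, recorded kinetically, defines activity here; cells are a tetracycline-induced HEK293 T-REx line expressing force-coupled D2.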
# Sequence of UniProt P14416 (P14416 whole entry, looked up): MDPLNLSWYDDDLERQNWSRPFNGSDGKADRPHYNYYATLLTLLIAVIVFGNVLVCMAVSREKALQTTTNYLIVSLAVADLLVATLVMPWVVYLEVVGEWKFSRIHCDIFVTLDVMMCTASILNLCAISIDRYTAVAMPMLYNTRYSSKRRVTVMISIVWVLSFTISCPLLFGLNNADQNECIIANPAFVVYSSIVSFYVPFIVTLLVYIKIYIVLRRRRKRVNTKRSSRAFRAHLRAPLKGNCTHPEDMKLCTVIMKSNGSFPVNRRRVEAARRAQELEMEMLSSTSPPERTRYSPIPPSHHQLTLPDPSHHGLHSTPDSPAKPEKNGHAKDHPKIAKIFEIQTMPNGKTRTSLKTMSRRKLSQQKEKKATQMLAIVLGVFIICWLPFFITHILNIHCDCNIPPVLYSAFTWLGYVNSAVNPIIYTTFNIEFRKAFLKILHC
row,Structure (SMILES),inhibition
1,CCOc1ccc(C(=O)c2cn(Cc3ccc(OC)cc3)c3cc(OC)c(OC)cc3c2=O)cc1,-10.2%
2,CCOc1ccc(NS(=O)(=O)c2ccc3[nH]cc(C(=O)NC4CCCC4)c(=O)c3c2)cc1,-2.48%
3,CC(NC(=O)c1cccc(NC(=O)c2nsc3ccccc23)c1)c1ccccc1 (configuration not stated),4.38%
4,COc1ccc2c(c1)Cc1sc(NC(=O)c3cccc(F)c3)nc1-2,-11.7%
5,Cc1ccc(/C=N/Nc2nncc(-c3ccccc3)n2)o1,active: 50.6%
6,Cc1cc(NC(=O)c2ccccc2)ncc1NC(=O)c1cccs1,active: 36.4%
7,COc1ccc(C(=O)Nc2ccc3oc(-c4ccc(OC)cc4)nc3c2)cc1,-23.4%
8,CCc1cccc(NC(c2nnc(-c3ccccc3)o2)c2ccc(F)cc2Cl)c1 (configuration not stated),-1%
9,Cc1ccc(NC(=O)NCC2CCN(Cc3cccc(Cl)c3)CC2)cc1Cl,17.5%
10,CCCC(=O)Nc1cc(-c2nc3cccnc3s2)ccc1C,6.99%
11,Cc1ccccc1OCC(=O)Nc1ccc2nc(SCCOc3ccccc3)sc2c1,-21.4%
12,O=C(CSc1nc2ccccc2nc1Cc1ccc(Cl)cc1)N1CCN(c2ccccc2F)CC1,-28.1%
13,O=[N+]([O-])c1ccccc1/C=C/CN1CCCC(CO)C1 (configuration not stated),active: 35.4%
14,Cc1ccc(C)c(N2CCN(C(=O)CCCCCn3c(=O)[nH]c4ccccc4c3=O)CC2)c1,-0.529%
15,Cc1ccc(C)c(Cn2c(SCC(=O)N(C)Cc3ccccc3)nc3ccccc32)c1,-22%
16,CCc1ccccc1NC(=O)C(=O)NCC(c1cccnc1)N1CCc2ccccc21 (configuration not stated),-25.7%
17,Cc1ccc(-c2nnc(Nc3ccc(S(N)(=O)=O)cc3)c3ccccc23)cc1S(=O)(=O)N1CCOCC1,-3.29%
18,CCOc1ccc(-c2cc(C(=O)N3CCN(c4cccc(C)c4)C(C)C3)c3ccccc3n2)cc1 (configuration not stated),20.1%
19,Fc1ccc(C(c2ccc(F)cc2)N2CCN(C/C=C/c3ccccc3)CC2)cc1,active: 64.5%
20,Cc1ccc(N2CC(C(=O)NCc3nnnn3-c3ccc(C)c(C)c3)CC2=O)cc1C (configuration not stated),13.4%
21,CC(C)c1ccc2oc(-c3cc(NC(=O)c4cccnc4)ccc3Cl)nc2c1,21%

row,Structure (SMILES),inhibition
1,COc1cc(C(=O)NCC(c2ccc3c(c2)OCO3)N2CCN(C)CC2)cc(OC)c1OC (configuration not stated),8.2%
2,COc1cccc2c1cc1c(=O)n(CC(=O)NCc3ccc(N(C)C)cc3)nc(C)n12,0.255%
3,O=C(O)c1ccc(NS(=O)(=O)c2ccc(N3C(=O)CCC3=O)cc2)cc1,active: 38.7%
4,CCC1CCCCN1CCCNC(=O)c1c(C)oc2ncn(CC(C)C)c(=O)c12 (configuration not stated),7.49%
5,COc1cccc(NC(=O)c2sc3nc(C)c(C(=O)Nc4ccc(C)cc4C)c(-c4ccc(C)o4)c3c2N)c1,0.558%
6,O=c1n(Cc2ccc(Cl)cc2)nc2n1-c1ccccc1OC2,18.6%
7,COc1ccc(CCC(C)NC2C3CC4CC(C3)CC2C4)cc1 (configuration not stated),active: 40%
8,COc1cc(O)ccc1-c1nc2cc(C)ccn2c1Nc1ccccc1C,-1.76%
9,CN1CCc2c(c3ccccc3n2Cc2ccccc2)C1,active: 32.9%
10,CCc1ccc(S(=O)(=O)Nc2cccc(-c3ccc(OC)nn3)c2)s1,-15.9%
11,Cc1cccc2c(=O)cc(CSc3ccccc3NC(=O)c3cccc(Br)c3)[nH]c12,8.89%
12,COc1ccc(NC(=O)CSc2nc3nc(C)cc(C)n3n2)cc1OC,-6.3%
13,O=C(Nc1cccc(F)c1)C1CCN(S(=O)(=O)c2ccc3[nH]c4c(c3c2)CCCCC4)CC1,2.79%
14,O=C(NCc1cccc(Cl)c1)c1ccc2c(Cl)c3c(nc2c1)CCCC3,-1.44%
15,COc1ccc(CCN2C(=O)N(c3ccc(C)cc3)C(=O)C2CC(=O)Nc2ccc(OC)cc2)cc1 (configuration not stated),-5.97%
16,COc1cc(NC(=O)c2cc(S(=O)(=O)N3CCC(C)CC3)cn2C)cc(OC)c1OC,-21.7%
17,CCOC(=O)C1CCCN(C(=O)Cn2ncc3c4ccccc4n(C)c3c2=O)C1 (configuration not stated),5.54%
18,Cc1cccc(NC(=O)CN2C(=O)CC(c3ccccc3)Sc3ccccc32)c1 (configuration not stated),6.96%
19,Cc1ccc(NC(=O)CCc2c(C)nc3ncnn3c2C)cc1Cl,7.84%
20,Cc1ccccc1NC(=O)Cn1nnc(C(=O)NCc2cccs2)c1N,10.6%
21,Cc1ccc(C)c(CSc2cn(CCNC(=O)c3cccs3)c3ccccc23)c1,-0.522%

row,Structure (SMILES),inhibition
1,CCc1ccc(NS(=O)(=O)c2ccc(NC(=O)N3CCCC3)cc2)cc1,22.4%
2,CSCCC(N=C1NS(=O)(=O)c2ccccc21)C(=O)NCCc1ccccc1 (configuration not stated),active: 42%
3,Cc1ccc(OCCN2CCN(CC(O)Cn3c4ccccc4c4ccccc43)CC2)cc1 (configuration not stated),active: 62.7%
4,Cc1ccc(CSc2nc3cc(C(=O)NC4CCCC4)ccc3c(=O)n2Cc2ccccc2)cc1,-3.03%
5,CC(CNC(=O)c1csc2c1CCCCC2)c1ccccc1 (configuration not stated),4.66%
6,O=C(Nc1cccc(O)c1)c1cc(-c2ccccc2F)no1,-24.5%
7,CCc1ccc(NC(=O)Cn2nnc(C(=O)Nc3ccc(F)cc3)c2N)cc1,-11%
8,N#Cc1ccc(NC(=O)c2ccc3c(c2)nnn3C2CCCC2)cc1,-9.44%
9,CCCS(=O)(=O)N1CC(=O)N(c2cc(C)cc(C)c2)C(C)(C(=O)NC2CCCCCC2)C1 (configuration not stated),12.8%
10,CCC(Sc1ncnc2sc3c(c12)CCCC3)C(=O)OCC(C)C (configuration not stated),4.72%
11,CCOc1ccccc1C(=O)Nc1cc(-c2nc3cccnc3s2)ccc1C,-14.7%
12,COc1ccc(Nc2oc(-c3ccc(COc4ccccc4)o3)nc2C#N)cc1,16.4%
13,COc1ccc(-n2c(SCc3nc(-c4ccc(Cl)cc4)no3)nnc2-c2ccncc2)cc1,-5.2%
14,CCOc1ccc(-c2cc(CCCC(=O)NCCc3ccc(OC)c(OC)c3)no2)cc1,2.46%
15,O=C(O)COc1ccccc1C1Nc2ccccc2-c2nnc(SCc3ccc(Cl)cc3)nc2O1 (configuration not stated),16.9%
16,Cc1ccc(C)c(N2CCN(C(=O)C3CCC(CNS(=O)(=O)c4ccc(Br)s4)CC3)CC2)c1 (configuration not stated),-13.2%
17,COc1cccc(NC(=O)Cn2c(=O)n(CCCCC(=O)NCc3ccc4c(c3)OCO4)c(=O)c3ccccc32)c1,-2.32%
18,Cc1c(NC(=O)C(F)(F)F)ccc2nc3c(=O)n(C)c(=O)n(C)c3nc12,-26.9%
19,CCc1ccccc1NC(=O)c1cnn(-c2ccc(F)cc2)c1C1CCNCC1,-3.97%
20,COc1ccc(-c2cc(-c3ccc4c(c3)NC(=O)CO4)nc3c2COc2ccc(C)cc2-3)cc1,10.2%
